Where “and” joins values, the source holds several entries; their conditions need not be identical. Identical values can stand only once. Out of some 360,000 compounds screened, about 11,000 (3.1%) were called active. This list was built around the results that the source calls inconclusive (neither active nor inactive); the mix of calls is not that of the screen. Calls follow the shape of the dose curve; as a rule, active = well fitted inhibition curve with a large enough effect; inconclusive = small, poorly fitted or top-dose-only effect; inactive = no such curve, though single readings can be large or run the other way. Where the call is inconclusive, the potency comes from a doubtful curve fit.
Target: Schistosoma mansoni thioredoxin glutathione reductase (TGR) (UniProt Q962Y6)
Test: qHTS Assay for the Inhibitors of Schistosoma Mansoni Peroxiredoxins; also: nearly all actives have a fitted effect of over 60% in size
Conditions: purified TGR, DTNB reduction, TNB absorbance 405 nm; activity change, negative = inhibition: at 114 µM (top of the series) unless noted
Procedure, shortened: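 Kinetic colorimetric format: TGR-catalysed, NADPH-driven DTNB reduction monitored via TNB absorbance. Enzyme dispensed at 20 nM; compound exposure 15 min at room temperature before reaction start.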
% is scaled to controls: 0 for no effect and ±100 for the full control effect; potency is read from the fitted curve at half-maximal effect; tags tell the direction and shape of the fitted curve.

SMILES | activity change, negative = inhibition | Potency
CCOc1ccc(NC(=O)c2ccc(-n3cccn3)nc2)cc1 | inactive: 6.08% | –
CC(C)c1cc(CN2CCN(CCC#N)CC2)cc(C(C)C)c1O | – | active: 22.4 µM
CSc1ncccc1C(=O)OCC(=O)c1ccc(Br)s1 | inactive: 6.03% | –
CCOC(=O)C1=C(C)NC(=O)NC1c1ccc(-c2ccccc2F)o1 (configuration not stated) | – | inconclusive: 39.8 µM [inhibitor, partial curve]
Cc1nc(NC(=O)c2ccccc2)sc1-c1csc(Nc2ccc(F)cc2)n1 | inactive: -33.2% | –
CC(=O)c1ccc(N2CCN(C(=O)c3nn(Cc4ccccc4)c(=O)c4ccccc34)CC2)cc1 | inactive: -0.549% | –
CC1S/C(=N/N=C/c2ccco2)N(Cc2ccccc2)C1=O (configuration not stated) | – | active: 35.5 µM
O=C(CCn1ccc2cc(S(=O)(=O)N3CCCC3)ccc21)NCc1ccccc1Br | inactive: 3.69% | –
C1=C[C@@H]2CCN(Cc3ccccc3)Cc3cccc(c32)C1 | – | inconclusive: 89.1 µM [inhibitor, single point]
O=C(N/N=C/c1c(O)n(Cc2ccco2)c(=O)[nH]c1=O)c1ccccc1O | – | inconclusive: 56.2 µM [inhibitor, partial curve]
O=C1CCCC2=C1C(c1ccc3c(c1)OCO3)c1c([nH]n(-c3ccccc3)c1=O)N2 (configuration not stated) | – | inconclusive: 28.2 µM [inhibitor, full curve, poor fit]
CCOc1ccccc1CN1CCNC(=O)C1CC(=O)NCc1nc(C)cs1 (configuration not stated) | – | inconclusive: 44.7 µM [inhibitor, partial curve]
CCOC(=O)c1c(CN2CCOCC2)n(C)c2cc(Br)c(O)c(CN(C)C)c12 | – | inconclusive: 89.1 µM [inhibitor, partial curve] and inconclusive: 39.8 µM [inhibitor, partial curve]
O=C(Nc1ccc2nc(-c3ccc(Br)o3)[nH]c2c1)c1cccs1 | – | active: 25.1 µM
CCN1CCN(Cc2c(O)ccc3c2O/C(=C\c2ccc(C)cc2)C3=O)CC1 | – | inconclusive: 39.8 µM [inhibitor, partial curve]
CC(C)(C)c1csc(N/N=C/c2ccc(O)cc2)n1 | inactive: -26.9% | –
Cc1ccccc1C(=O)Nc1ccc(C(=O)N/N=C/c2ccncc2)cc1 | – | inconclusive: 0.708 µM [inhibitor, full curve, poor fit]
COc1cc(/C=C2/C(=O)NN(c3ccc(Cl)cc3)C2=O)ccc1OC(=O)c1ccco1 | – | inconclusive: 14.1 µM [inhibitor, full curve, poor fit]
COc1ccc(Cl)cc1C(=O)NNC(=O)C1COc2ccccc2O1 (configuration not stated) | – | inconclusive: 79.4 µM [inhibitor, partial curve, poor fit]
CCOc1ccc(/C=C/C2=Cc3c(sc(NC(=O)CSc4n[nH]c(N)n4)c3C#N)C(C)(C)C2)cc1 | – | inconclusive: 50.1 µM [inhibitor, partial curve]
Oc1cccc(C=Nc2cccc3ccccc23)c1O | – | active: 7.94 µM
CCOC(=O)/C(=C/c1ccc(OC(=O)c2ccncc2)cc1)C(C)=O | – | inconclusive: 1.78 µM [inhibitor, partial curve, poor fit]
CCc1ccc(NC(=O)CSc2nc(-c3cccc(OC)c3)nc3c2Cc2c(CO)cnc(C)c2O3)cc1 | – | inconclusive: 44.7 µM [inhibitor, partial curve]
COc1ccc(OC)c(-n2c(CN3CCC(C(N)=O)CC3)nc3ccccc3c2=O)c1 | – | inconclusive: 39.8 µM [inhibitor, partial curve]

SMILES | activity change, negative = inhibition | Potency
C=CCN1C(=O)/C(=C/c2cc(C)n(-c3cccnc3)c2C)C(=O)NC1=S | – | inconclusive: 35.5 µM [inhibitor, partial curve]
O=C(/C=C/c1cccc([N+](=O)[O-])c1)NC(=S)Nc1ccc(CN2CCOCC2)cc1 | inactive: -4% | –
CCOc1ccc2[nH]c(=O)c(CN(Cc3ccco3)Cc3nnnn3Cc3ccccc3)cc2c1 | – | active: 22.4 µM
O=C1c2ccccc2C(Nc2ccc(F)c(Cl)c2)N1Cc1ccco1 (configuration not stated) | – | active: 12.6 µM
O=C(NCc1ccco1)C1CN(S(=O)(=O)c2ccccc2)CCN1S(=O)(=O)c1ccccc1 (configuration not stated) | – | inconclusive: 44.7 µM [inhibitor, partial curve]
COc1ccc(-c2nc(CN3CCN(c4ncnc5ccccc45)CC3)c(C)o2)c(OC)c1 | – | inconclusive: 28.2 µM [inhibitor, full curve]
O=C(/C=C/c1ccco1)NC(=S)Nc1ccccc1 | – | inconclusive: 2.82 µM [inhibitor, full curve, poor fit]
C=Cc1ccc(Cn2c(C(=O)O)c(CNC3CCCCC3)c3ccc(OC)cc32)cc1 | inactive: -6.36% | –
O=C(c1ccco1)N(Cc1ccc(Cl)cc1)C1CCS(=O)(=O)C1 (configuration not stated) | – | inconclusive: 44.7 µM [inhibitor, partial curve]
CCc1nc(-c2ccc(-c3ccc(OC)cc3)nc2OC)no1 | inactive: -1.33% | –
O=C(N/N=C/C(Br)=C/c1ccccc1)C1CC1 | – | inconclusive: 44.7 µM [inhibitor, partial curve]
O=C(N=C1SCC(=O)N1c1ccccc1Cl)c1ccco1 | inactive: 3.94% | –
Cc1ccc(S(=O)(=O)NCCOC(=O)Nc2sc(=S)n(C)c2C)cc1 | – | active: 11.2 µM
CN(C)CCn1c(NCc2ccc3c(c2)OCO3)nc2ccccc21 | inactive: -9.88% | –
Cc1ccccc1CSc1nc(-c2cccc(F)c2)nc2c1Cc1c(CO)cnc(C)c1O2 | – | inconclusive: 44.7 µM [inhibitor, partial curve, poor fit]
COc1ccc(CC(=O)Nc2cccc(SC)c2)cc1OC | – | inconclusive: 3.55 µM [inhibitor, single point]
CC1(NC(=O)CN2CCN(c3cnn(-c4ccccc4)c(=O)c3Cl)CC2)CCS(=O)(=O)C1 (configuration not stated) | – | inconclusive: 89.1 µM [inhibitor, single point]
Cc1ccc(NC(=O)c2ccc(NCc3ccco3)c([N+](=O)[O-])c2)cc1Cl | inactive: 7.34% | –
COC(=O)c1ccc(NC(=O)CCc2c(C)nc3c(c(C)nn3C(C)(C)C)c2C)cc1 | inactive: 14.7% | –
Cc1nc(SCC(=O)Nc2nsc(-c3ccc(C(C)(C)C)cc3)n2)c2c3c(sc2n1)CCCC3 | inactive: -0.79% | –
O=C(CSc1nc2ncccc2o1)Nc1cccc(C(F)(F)F)c1 | – | inconclusive: 89.1 µM [inhibitor, single point]
O=C(NCC(c1cccnc1)N1CCOCC1)NC1CCCCC1 (configuration not stated) | – | inconclusive: 89.1 µM [inhibitor, single point]
Cc1ccc(C)c(N2CCN(C(=O)c3cc4c(=O)oc5ccccc5c4s3)CC2)c1 | – | active: 89.1 µM
C/C(=N\Nc1cccc(C(F)(F)F)c1)c1ccc(O)cc1 | – | inconclusive: 50.1 µM [inhibitor, partial curve]

SMILES | activity change, negative = inhibition | Potency
CCN(CC)CCN1C(=O)C(=O)/C(=C(/O)c2ccc(OC)cc2)C1c1cccs1 (configuration not stated) | – | active: 44.7 µM
Cc1ccc2nc(-c3ccc(C)o3)c(Nc3ccc4c(c3)OCCO4)n2c1 | – | inconclusive: 56.2 µM [inhibitor, partial curve]
O=C(CCN1C(=O)C2C3C=CC(C3)C2C1=O)NCCN1CCCc2ccccc21 (configuration not stated) | – | inconclusive: 89.1 µM [inhibitor, single point]
Fc1ccc(C2=CC(c3ccco3)n3ncnc3N2)cc1 (configuration not stated) | – | inconclusive: 56.2 µM [inhibitor, partial curve]
C=CCc1c(C)[nH]c(=O)[nH]c1=O | inactive: -1.36% | –
CC1(C)CC(=O)C(=Cc2cn(CCC#N)nc2-c2ccc(Cl)cc2)C(=O)C1 | – | inconclusive: 50.1 µM [inhibitor, partial curve]
Cc1c(Cl)cccc1Nc1nc(N)nc(CSC(=S)N2CCOCC2)n1 | inactive: -12.7% | –
CCCCOC(=O)c1ccc(NC(=S)NC(=O)c2ccco2)cc1 | – | inconclusive: 10 µM [inhibitor, full curve]
CCc1cccc(-n2c(=O)c3cccnc3n2CC(=O)NCc2ccc(C)cc2)c1 | inactive: -12.2% | –
COCCNC(=O)CS(=O)Cc1nc(-c2ccc(Cl)cc2)oc1C (configuration not stated) | – | inconclusive: 35.5 µM [inhibitor, full curve]
CC(C)(C)c1ccc(OCC(=O)NCC2(N3CCOCC3)CCCCC2)cc1 | inactive: -1.31% | –
COCCCNC(=O)c1cn(C)c(=O)c2c1c1ccccc1n2C | inactive: -5.55% | –
Cc1cccc(N(Cc2ccccc2)C(=O)c2ccc(S(C)(=O)=O)cc2)c1 | – | inconclusive: 89.1 µM [inhibitor, single point]
Cc1ccc(N2NC3(CCN(C(N)=O)CC3)NC2=O)cc1 | – | active: 39.8 µM
Cc1cc(Cl)ccc1N(CC(=O)NCCSCc1ccco1)S(C)(=O)=O | – | active: 17.8 µM
Cc1nonc1C(=O)N1CCCC(Nc2ccc(C(C)C)cc2)C1 (configuration not stated) | inactive: -15.2% | –
CC(C)(C)c1ccc(/C=C2\SC(=O)N(CCNC(=O)c3cccc(S(=O)(=O)N4CCOCC4)c3)C2=O)cc1 | inactive: -5.4% | –
O=C1CC(N2CCC(O)(c3ccc(Br)cc3)CC2)C(=O)N1c1ccc(Cl)cc1 (configuration not stated) | inactive: -26.2% | –
Oc1[nH]c2ccc(Br)cc2c1N=NC(=S)NCC1CCCO1 (configuration not stated) | inactive: -0.295% | –
O=C(COC(=O)c1cnccn1)c1ccc(Br)cc1 | – | inconclusive: 100 µM [inhibitor, single point]
Cc1ccc(C)n1-c1nnc(N2CCCC(C(=O)Nc3ccccc3Br)C2)s1 (configuration not stated) | – | inconclusive: 50.1 µM [inhibitor, partial curve]
S=C(NCc1ccccc1)Nc1cccc(Cl)c1 | – | inconclusive: 63.1 µM [inhibitor, partial curve, poor fit]
O=C(N/N=C/c1c(O)n(Cc2ccccc2)c(=O)[nH]c1=O)c1ccccc1O | – | active: 25.1 µM
Nc1ncnc(Sc2ccc(Cl)cc2)c1[N+](=O)[O-] | – | inconclusive: 1.58 µM [inhibitor, full curve]

— PubChem BioAssay AID485364 (National Center for Advancing Translational Sciences (NCATS), 2010)
